# Test results from PMC4336329 (PLoS ONE, 2015).
# The campaign covered roughly 310,000 compounds. About 2,200 (0.71%) showed an effect of 50% or more. The effect is printed as a negative number. The list shows a part of the results.
# Target: human ether-à-go-go-related gene (hERG) potassium channel (human, UniProt Q12809)
# Assay: primary screen, population patch clamp on CHO cells stably expressing hERG
# human ether-à-go-go-related gene (hERG) potassium channel, sequence (Q12809 whole entry, looked up): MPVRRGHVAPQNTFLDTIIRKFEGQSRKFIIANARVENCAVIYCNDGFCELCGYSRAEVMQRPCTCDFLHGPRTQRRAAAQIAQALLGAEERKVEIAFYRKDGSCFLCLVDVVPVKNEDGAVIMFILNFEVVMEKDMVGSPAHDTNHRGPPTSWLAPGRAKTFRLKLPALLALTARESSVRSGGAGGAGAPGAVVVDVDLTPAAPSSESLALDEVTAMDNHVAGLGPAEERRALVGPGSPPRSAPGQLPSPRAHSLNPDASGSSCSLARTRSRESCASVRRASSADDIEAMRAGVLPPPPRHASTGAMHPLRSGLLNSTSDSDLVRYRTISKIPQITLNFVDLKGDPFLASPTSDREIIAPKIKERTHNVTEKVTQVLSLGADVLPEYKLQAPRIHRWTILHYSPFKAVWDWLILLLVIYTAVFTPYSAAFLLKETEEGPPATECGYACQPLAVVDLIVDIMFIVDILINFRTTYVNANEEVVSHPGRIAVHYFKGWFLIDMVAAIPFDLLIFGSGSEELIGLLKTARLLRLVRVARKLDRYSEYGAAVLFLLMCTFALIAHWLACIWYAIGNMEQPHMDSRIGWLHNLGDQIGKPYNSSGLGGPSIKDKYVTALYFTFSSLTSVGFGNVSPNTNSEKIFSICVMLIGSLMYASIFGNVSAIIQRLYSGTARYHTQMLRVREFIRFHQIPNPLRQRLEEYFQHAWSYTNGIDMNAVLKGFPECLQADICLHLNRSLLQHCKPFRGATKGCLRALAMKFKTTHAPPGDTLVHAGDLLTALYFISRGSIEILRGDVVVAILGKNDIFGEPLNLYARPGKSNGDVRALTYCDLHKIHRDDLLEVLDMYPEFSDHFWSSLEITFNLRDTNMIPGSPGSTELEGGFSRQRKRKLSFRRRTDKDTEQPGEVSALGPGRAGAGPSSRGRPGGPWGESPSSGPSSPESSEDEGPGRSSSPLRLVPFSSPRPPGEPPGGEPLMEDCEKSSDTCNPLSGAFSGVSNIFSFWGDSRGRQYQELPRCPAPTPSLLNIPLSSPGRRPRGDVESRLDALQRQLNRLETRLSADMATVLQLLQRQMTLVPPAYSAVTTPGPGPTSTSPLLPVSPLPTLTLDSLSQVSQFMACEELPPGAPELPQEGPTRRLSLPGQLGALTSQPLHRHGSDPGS
row,Structure (SMILES),"hERG current change (%, negative = inhibition) at 1uM [%]"
1,O=C(NCc1cccnc1)C1CC(c2ccccc2Cl)=NO1 (stereo not drawn),11.1
2,COc1ccccc1NS(=O)(=O)c1ccc(OC)c([N+](=O)[O-])c1,12.7
3,Cc1nn(C)cc1NC(=O)c1cc2nc(-c3ccco3)cc(C(F)(F)F)n2n1,5.38
4,COc1ccc(NS(=O)(=O)c2ccc3oc(SC4CCOC4=O)nc3c2)cc1 (stereo not drawn),-0.37
5,CCC(C)C(NC(=O)C1CCC(C)CC1)C(=O)Nc1cc(OC)ccc1OC (stereo not drawn),-7.01
6,Cc1cc(OCC(O)CN2CCOCC2)cc(C)c1Cl.Cl (stereo not drawn),23.7
7,CCN(CC)C(=O)CN1CCN(Cc2ccc3c(c2)OCO3)CC1.O=C(O)C(=O)O,11.5
8,COc1ccc(S(=O)(=O)N2CCCCC2)cc1NC(=O)Cc1ccsc1,8.14
9,CC(C)C1(C)N=C(c2ncccc2C(=O)[O-])NC1=O.[Na+] (stereo not drawn),13.6
10,O=C(NC(Cc1ccccc1)C(=O)O)/C(=C\c1ccc(Cl)cc1)NC(=O)c1ccco1 (stereo not drawn),7.15
11,O=C1/C(=C/c2ccc([N+](=O)[O-])cc2)CCc2ccccc21,9.4
12,CCC(C)(C)N=C(NC#N)Nc1cccnc1,5.08
13,COc1cccc(N2CCN(c3ccc4nnc(CCC(=O)Nc5cc(C)ccn5)n4n3)CC2)c1,7.75
14,CN(C)CCN1C(=O)C(=O)/C(=C(/O)c2ccc(F)cc2)C1c1ccccc1 (stereo not drawn),5.54
15,Cc1ccc(NC(=O)[C@H](NC(=O)[C@@H]2Cc3ccccc3CN2)c2ccccc2)cc1,-10.1
16,CCC(=O)Nc1ccc(NC(=O)CSc2nnc(-c3ccc(O)cc3)n2CC2CCCO2)cc1 (stereo not drawn),-3.28
17,O=C(NCc1ccc2c(c1)OCO2)c1ccncc1,-6.47
18,O=C(NC1CCCCC1)c1cc(-c2cccc(Cl)c2)on1,9.26
19,CCn1nnc(NC(=O)c2cccnc2Cl)n1,13.4
20,Cc1ccccc1/C=N/NC(=O)c1ccc(-n2cnnn2)cc1,11.7
21,Cc1cccc(NC(=O)C2c3ccccc3C(=O)N3CCc4ccccc4C23)n1 (stereo not drawn),-14.7
22,CCOc1cc(C(=S)N2CCCC2)ccc1OC(=O)Cc1ccc(F)cc1,2.19

row,Structure (SMILES),"hERG current change (%, negative = inhibition) at 1uM [%]"
1,COc1ccc(C2NC(=O)N(C)C(C)=C2[N+](=O)[O-])cc1 (stereo not drawn),7.07
2,O=C(CCCC(=O)Nc1cccc(Br)c1)N/N=C/c1cc([N+](=O)[O-])ccc1O,2.39
3,CC1Oc2ccccc2N(CC(=O)NCc2ccccc2)C1=O (stereo not drawn),6.03
4,CC(=O)c1c(Nc2cccc(F)c2)oc(C)cc1=O,12.5
5,COc1cc(OC)c(NC(=O)CCCNC(=O)Cn2cnc3sc(C)c(C)c3c2=O)cc1Cl,15.4
6,N#CC[C@H](Cc1ccccc1)N1CC[C@@H](NC(=O)OCc2ccccc2)CCC1=O,-4.51
7,CCOc1ccc2[nH]c(=O)c(C(c3nnnn3Cc3ccco3)N3CCC(C)CC3)cc2c1 (stereo not drawn),-3.14
8,O=C(CSc1nc2cccnc2n1Cc1ccccc1)NCc1ccco1,-14.7
9,CC(C)NC(=O)CN(C(=O)CCC(=O)Nc1nccs1)c1ccc(C(C)C)cc1,12
10,CC1=NN(Cc2ccccc2)C(=O)C1,2.84
11,CCCS(=O)(=O)N1CCN(CC2CC=CCC2)CC1.O=C(O)C(=O)O (stereo not drawn),0.625
12,Cc1ccn2c(C(=O)N/N=C\c3ccc4c(c3)OCO4)c(C)nc2c1,3.12
13,Cn1c(-c2ccccc2)cc2c3no[n+]([O-])c3ccc21,9.03
14,COc1ccc(-n2c(O)c(C(C)=Nc3ccc4c(c3)CCC4)c(=O)[nH]c2=O)cc1,15.1
15,Cc1cc(C)c(S(C)(=O)=O)c(Oc2ccc(F)cc2)n1,6.83
16,NC(=O)C1CCN(CC(=O)Nc2cccnc2Cl)CC1,9.3
17,COc1ccc(OC)c(NC(=O)c2cc(-c3cc(C)cc(C)c3O)n[nH]2)c1,11.8
18,Cc1ccc(-n2ncc(C(=O)N3CCc4ccccc4C3)c2NC(=O)c2ccco2)cc1C,15.3
19,CN(CC(=O)N1CC(=O)N(CCc2ccccc2)C(=O)C1)S(=O)(=O)c1cccc2nsnc12,12.6
20,CCOc1ccc(Nc2nc(NCCN3CCOCC3)nc(OC)n2)cc1,-40
21,O=C(CN1C(=O)NC2(CCCCC2)C1=O)N1CCN(S(=O)(=O)/C=C/c2ccccc2)CC1,8.44
22,COc1cccc(NC(=O)c2ocnc2C)c1,-0.893

row,Structure (SMILES),"hERG current change (%, negative = inhibition) at 1uM [%]"
1,c1ccc(C2c3c(ccc4ccccc34)Oc3ncn4nc(-c5ccco5)nc4c32)cc1 (stereo not drawn),-2.5
2,O=C1CC(N2CCN(c3ccccc3F)CC2)C(=O)N1c1ccc(F)cc1 (stereo not drawn),2.75
3,CCCCOC(=O)C1[C@H]2C(=O)N(c3ccccc3CC)C[C@]23C=C[C@H]1O3 (stereo partly drawn),2.27
4,Cc1ccc(NS(=O)(=O)c2cc3c4c(cccc4c2)C(=O)NC3=O)cc1,22
5,CCOC(=O)CN1C(=O)C(O)(C2CCc3ccccc3C2=O)c2ccccc21 (stereo not drawn),7.13
6,O=C(c1cccc(-n2cccc2)c1)N1CCN(S(=O)(=O)c2c(F)cccc2F)CC1,-7.88
7,Cc1ccc(CN2C(=O)CCC2C(=O)NCc2cccnc2)cc1 (stereo not drawn),5.88
8,CCOc1cccc(C(=O)NC(=S)Nc2ccccc2)c1,3.84
9,CCOc1ccc(C(CC(=O)O)NC(=O)Cc2ccccc2)cc1OC (stereo not drawn),14.9
10,COCc1[nH]nc2c1C1(CCSCC1)C(C#N)=C(N)O2,10.3
11,COc1ccc(NC(=O)Cn2nnc(-c3ccc(CN4CCOCC4)cc3)n2)c(OC)c1,-2.8
12,Nc1nnc(N)c2ccccc12,23.9
13,CC(C)Oc1ccc(C(=O)NCCNC(=O)c2ccco2)cc1,9.59
14,Cc1cccc(C)c1N1CCN(c2ccc3nnc(C(F)(F)F)n3n2)CC1,25
15,CC(C)CNC(=O)CC1Nc2ccccc2NC1=O (stereo not drawn),0.539
16,CC(C)CCNC(=O)CSc1nc2ccsc2c(=O)n1NC(=O)c1ccccc1,-0.789
17,O=C(NCC(c1ccco1)N1CCCC1)c1cn(Cc2ccccc2)nc1-c1ccccc1 (stereo not drawn),-35.2
18,Cl.O=C(COc1ccc(Cl)cc1)N1CCN(Cc2ccc3c(c2)OCO3)CC1,-16
19,COc1ccc(CCNC(=O)C(=O)NCC2OCCN2S(=O)(=O)c2cccs2)cc1 (stereo not drawn),14.3
20,O=c1cc(N2CCCCC2)c(-c2ccccc2)nn1Cc1c(Cl)cccc1Cl,-0.597
21,COc1ccc(/C=N/n2c(-c3cc(C)[nH]n3)n[nH]c2=S)cc1,14.3
22,COc1ccc(C(=O)NCc2nc3ccccc3[nH]2)cc1OC,8.15

row,Structure (SMILES),"hERG current change (%, negative = inhibition) at 1uM [%]"
1,COc1ccccc1-c1cc(C(=O)NCCc2ccccc2)no1,11
2,CCCS(=O)(=O)c1ncc(Cl)c(C(=O)Nc2ccc(S(=O)(=O)Nc3ncccn3)cc2)n1,14.3
3,O=C(CCN1C(=O)C2C3CCC(C3)C2C1=O)OCC(=O)c1ccccc1 (stereo not drawn),3.59
4,CCC1S/C(=N/N=C/c2ccco2)NC1=O (stereo not drawn),10.9
5,NS(=O)(=O)c1ccc(Sc2ccccn2)c([N+](=O)[O-])c1,13
6,CCOC(=O)c1nnn(-c2nonc2-n2cccc2)c1C,0.343
7,Cc1cc(O)ccc1NC1=CC(=O)CC(C)(C)C1,12.4
8,COc1ccc(C2/C(=C(/O)c3ccc(C)cc3)C(=O)C(=O)N2C)c(OC)c1 (stereo not drawn),17.4
9,O=C1CC(NCc2ccco2)C(=O)N1CCc1ccccc1 (stereo not drawn),-0.679
10,CCn1c(C(=O)O)c(CC(=O)Nc2ccccc2OC)c2ccccc21,8.19
11,Cc1cc(=O)oc2cc(O[C@@H]3O[C@H](CO)[C@H](O)[C@H](O)[C@H]3O)ccc12,5.57
12,COc1cccc(C(=O)N2CCCc3ccccc32)c1,-3.04
13,COc1ccc(-n2c(C)cc(/C=C3\SC(=S)N(Cc4ccco4)C3=O)c2C)cc1,8.36
14,O=C(CCN1CCOCC1)N/N=C/c1cc([N+](=O)[O-])ccc1OC(F)F,11.2
15,CCOc1ccc(N2C(=O)Cc3ccccc3C2=O)cc1,18.6
16,O=C(NCc1nc2ccccc2[nH]1)C1=C[C@H](C2CCCCC2)C[C@H](OCCCCO)O1,4.65
17,O=C(NCc1ccncc1)c1ccc(Cl)c(S(=O)(=O)N2CCOCC2)c1,12.3
18,C/C(N)=C(/C#N)C(=O)COC(=O)c1ccc(NC(N)=O)cc1,5.4
19,Cc1cc(N/N=C/c2ccc(O)cc2O)nc(-c2ccccc2O)n1,8.71
20,Cc1ccc(C(=O)N2CCC3(CC2)NCCc2[nH]cnc23)cc1,-9.47
21,COc1cccc(CNCc2ccc(C(=O)O)cc2)c1OC.Cl,8.71
